Test results taken from PubChem BioAssay AID624296 (National Center for Advancing Translational Sciences (NCATS), 2012).
Screen size: about 350,000 compounds; about 9,900 (2.8%) were called active. Inconclusive means that the source gave no clear call. Such entries were picked first, then a sample of the others. The call rests on the fitted dose curve; in most records, active means well fitted activation curve with a large enough effect; inconclusive means small, poorly fitted or top-dose-only effect; inactive means no such curve, though single readings can be large or run the other way. Potencies of inconclusive entries are left out as doubtful fits.

Assay: A quantitative high throughput screen for small molecules that induce DNA re-replication in MCF 10a normal breast cells. Further: nearly all actives have a fitted effect of over 50% in size. On activity, positive = re-replication: % of control where 0% means no effect.
Settings: MCF 10A DNA re-replication, Hoechst nuclear intensity, 48 h; series mostly up to 46.1 µM; activity, positive = re-replication: at the top concentration
Potency means the concentration at half of the fitted maximal effect; tags describe the fitted curve by direction and shape.

| SMILES | activity, positive = re-replication | Potency |
| --- | --- | --- |
| CC(NC(=O)c1ccccc1SCC(=O)N1CCCC1)c1ccc(F)cc1 (stereo not given) | inactive: -1.6% |  |
| OCCN1CCN(c2ncnc3c2sc2nc(N4CCOCC4)c4c(c23)CCC4)CC1 | inactive: -16.8% |  |
| CCC(=O)Nc1nnc(S(=O)(=O)N(C)c2cc(C)cc(C)c2)s1 | inactive: 1.83% |  |
| Cc1ccc(S(=O)(=O)NNC(=O)NC23CC4CC(CC(C4)C2)C3)cc1 | inactive: 8.97% |  |
| COc1ccccc1N1CCN(/N=C/c2cc(Br)ccc2F)CC1 |  | inconclusive [activator, single point] |
| COc1ccccc1-c1nnc(SCC(=O)c2ccc(C3CCCCC3)cc2)n1Cc1ccco1 |  | inconclusive [activator, partial curve] |
| O=S(=O)(Nc1nc2ccccc2nc1NCC1CCCO1)c1cc(Cl)ccc1Cl (stereo not given) |  | inconclusive [activator, single point] |
| O=C(N/N=C/c1ccc(Br)s1)c1ccc([N+](=O)[O-])cc1 | inactive: -1.72% |  |
| CC(C)CCNc1nc(N2CCCC2)c2c(c1C#N)CCN(C)C2 |  | inconclusive [activator, single point] |
| Nc1ccc2c(c1)C(=O)C(=O)c1ccccc1-2 |  | inconclusive [activator, full curve, poor fit] |
| COc1ccc(OC)c(S(=O)(=O)Nc2cc(OC)c(Cl)cc2OC)c1 |  | inconclusive [activator, single point] |
| CCN(CC)CCNC1=NCCn2c1cc1cc(OC)ccc12 |  | inconclusive [activator, single point] |
| COCCNC(=O)c1ccc(C)cc1C | inactive: 3.14% |  |
| CC(C)N(c1ccccc1)c1ccc(NC(=O)COC(=O)CCN2C(=O)c3cccc([N+](=O)[O-])c3C2=O)cc1 |  | inconclusive [activator, full curve, poor fit] |
| CCOC(OCC)c1nc(N)[nH]c(=O)c1CCCCc1ccccc1 | inactive: 6.45% |  |
| O=C(CCC(=O)Nc1ccc(Br)cc1)N/N=C/c1cc([N+](=O)[O-])ccc1O |  | inconclusive [activator, partial curve, poor fit] |
| C[C@@H]1CN([C@@H](C)CO)C(=O)Cc2cc(NC(=O)Nc3cccc4ccccc34)ccc2O[C@@H]1CN(C)S(C)(=O)=O |  | inconclusive [activator, single point] |
| Cc1nnc(SC(C)C(=O)Nc2ccc(Cl)cn2)n1Cc1ccccc1 (stereo not given) |  | inconclusive [activator, full curve, poor fit] |
| COc1cc(S(=O)(=O)N2CCOCC2)ccc1F |  | inconclusive [activator, single point] |
| O=C(O)C(Cc1ccccc1)N1C(=O)/C(=C/c2ccccc2)SC1=S (stereo not given) |  | inconclusive [activator, single point] |
| O=C(NCc1ccco1)c1cnn2c1NC(c1ccc(Br)cc1)CC2C(F)(F)F (stereo not given) |  | inconclusive [activator, single point] |
| COC(=O)CCc1c(C)c(C(=O)c2cc(OC)c(OC)c(OC)c2)c2ccccn12 |  | inconclusive [activator, partial curve, poor fit] |
| CCOC(=O)C1CCCN(C(=O)c2cc(Nc3ccc(OC)cc3OC)nc3ccccc23)C1 (stereo not given) | inactive: 16.1% |  |
| CN(CCCCCCCCCCN(C)C(=O)Oc1cccc([N+](C)(C)C)c1)C(=O)Oc1cccc([N+](C)(C)C)c1 | inactive: 6.36% |  |

| SMILES | activity, positive = re-replication | Potency |
| --- | --- | --- |
| CNc1ccccc(C(=O)/C=C/c2ccccc2OC)c1=O |  | inconclusive [activator, single point] |
| O=C(C[C@H]1C[C@H](C(=O)N2CCCCC2)[C@@]2(CCc3ccccc3)c3[nH]c4ccc(Cl)cc4c3CCN2C1=O)NCCc1ccccn1 |  | inconclusive [activator, single point] |
| CC(C)CCN=Cc1c(O)n(-c2ccccc2)c(=O)c2ccccc12 |  | inconclusive [activator, partial curve, poor fit] |
| CC(C)c1cc(-c2cc(C(=O)NCc3ccccc3)on2)nc(NCC2CC2)n1 |  | inconclusive [activator, full curve, poor fit] |
| CC(=O)N(CC(O)CO)c1c(I)c(C(=O)NCC(O)CO)c(I)c(C(=O)NCC(O)CO)c1I (stereo not given) |  | inconclusive [activator, partial curve] |
| O=C(NC1CCCCC1)c1ccc(N2CCOCC2)c([N+](=O)[O-])c1 |  | inconclusive [activator, single point] |
| O=Cc1ccc(-c2ccccc2C(=O)O)o1 | inactive: 9.57% |  |
| Cc1cc(SCC(=O)Nc2ccc(O)cc2)n2nc(C)c(-c3ccccc3)c2n1 |  | inconclusive [activator, single point] |
| Cc1ccc(S(=O)(=O)N2CCc3ccccc3C2CN2C(=O)c3ccccc3C2=O)cc1 (stereo not given) | inactive: 21% |  |
| CCN(CC)CCNC(=O)c1cn(CC)c2ccc(S(=O)(=O)N3CCc4ccccc4C3)cc2c1=O | inactive: 6.45% |  |
| NC1=NC[C@H](c2ccccc2)N1CCCCC1CCCCC1 | inactive: 0.733% |  |
| CC(C)c1ccc(N2C=Nc3ccc(C(C)C)cc3C2)cc1 |  | inconclusive [activator, single point] |
| N#CCCC(CCC#N)(CCC#N)c1cc[n+](CCc2ccccn2)cc1 | inactive: -14.8% |  |
| Cc1nn(-c2ccccn2)c2nc(-c3cccs3)cc(C(=O)NCc3ccco3)c12 |  | inconclusive [activator, single point] |
| CCCOc1ccc(C2C(=O)N(C3CCCCCC3)CC(=O)N2Cc2ccco2)cc1OC (stereo not given) | inactive: 9.38% |  |
| COc1ccc(CCC(=O)Nc2ccc(N3CCOCC3)cc2)cc1 |  | inconclusive [activator, single point] |
| O=C(Cc1ccccc1)N/N=C/c1cc(Br)cc(Cl)c1O |  | inconclusive [activator, single point] |
| CCC(C(=O)c1ccccc1)P(=O)(NN)c1ccccc1 (stereo not given) | inactive: 0.236% |  |
| COc1ccc(-n2cc(-c3ccccc3)c3c(N4CC(C)OC(C)C4)ncnc32)cc1 (stereo not given) |  | active: 23.1 µM |
| CC12COC3(C(=O)Nc4ccc5ccccc5c4)CC1CCC32C (stereo not given) |  | inconclusive [activator, single point] |
| COc1ccc2cc(C3=CCCC3(C)C(=O)O)ccc2c1 (stereo not given) | inactive: 7.91% |  |
| Cc1c(CCCN)c2ccccc2n1Cc1ccccc1 |  | inconclusive [activator, single point] |
| COCCN(CC(=O)NCC1CCCO1)C(=O)CCC(=O)Nc1cc(C)on1 (stereo not given) |  | inconclusive [activator, partial curve, poor fit] |
| CC(C)(C)c1ccc(NC(=O)N2CCCN(c3ccc([N+](=O)[O-])cn3)CC2)cc1 | inactive: -12.6% |  |

| SMILES | activity, positive = re-replication | Potency |
| --- | --- | --- |
| Cn1c2ccccc2c(=O)c2cc(C#CC3(O)CCCCC3)ccc21 |  | inconclusive [activator, single point] |
| COC(=O)N/N=C/c1cn(CCCOc2ccccc2)c2ccccc12 |  | inconclusive [activator, partial curve] |
| O=C(c1ccccc1Cl)N1CCN(S(=O)(=O)c2cccs2)CC1 | inactive: -0.424% |  |
| COc1ccccc1C(=O)COC(=O)c1cc(=O)[nH]c2ccccc12 |  | inconclusive [activator, single point] |
| O=C(O)c1ccc(S(=O)(=O)N2CCc3ccccc3C2)cc1 | inactive: -3.57% |  |
| Cc1cc(NC(=O)c2ccccc2)ccc1NC(=O)Cc1ccccc1 | inactive: -2.6% |  |
| NS(=O)(=O)c1ccc(CCNC(=O)Cc2ccc(Cl)cc2)cc1 |  | inconclusive [activator, single point] |
| O=S(=O)(Nc1cc(Sc2cccc3cccnc23)c(O)c2ccccc12)c1ccc(F)cc1 |  | active: 10.3 µM |
| CCN1CCC(O)(/C=C/c2ccc(C)cc2)C(C(=O)/C=C/c2ccc(C)cc2)C1 (stereo not given) |  | inconclusive [activator, full curve, poor fit] |
| CCCCCn1c(=O)c2ccccc2n2c(=S)[nH]nc12 | inactive: 1.14% |  |
| N#CC(C(=O)NCc1ccccc1)c1nc2ccccc2nc1N1CCCC1 (stereo not given) |  | inconclusive [activator, single point] |
| N#Cc1c(-c2ccccc2)nc(SCc2cccc(C(F)(F)F)c2)[nH]c1=O |  | inconclusive [activator, single point] |
| COc1ccc(NC(=O)CSc2nnc(-c3ccncc3)o2)c(OC)c1 | inactive: -5.87% |  |
| CCOc1ccc(OCc2cccc(C(=O)N3CCCCCC3)c2)cc1 |  | inconclusive [activator, full curve] |
| COc1ccc(N2CCN(CC(=O)NCc3ccccc3)CC2)cc1 |  | inconclusive [activator, full curve, poor fit] |
| O=C(NN1CCOCC1)c1cc(-c2cccs2)nc2ccccc12 | inactive: 1.79% |  |
| CCNc1nc(-c2cc3ccccc3o2)cs1 | inactive: 12.7% |  |
| CC(Oc1ccc(Cl)cc1Cl)c1ccnc2nc(N3CCOCC3)nn12 (stereo not given) |  | inconclusive [activator, single point] |
| Cc1cccc(N2CCN(C(=O)c3c(C)nn(Cc4ccccc4Cl)c3C)CC2)c1C |  | active: 14.6 µM |
| O=C(Nc1ccc(OCc2ccccc2)cc1)c1cccc([N+](=O)[O-])c1 |  | inconclusive [activator, single point] |
| CCCc1cc(=O)[nH]c(SCC(=O)NCCC2=CCCCC2)n1 |  | inconclusive [activator, single point] |
| CCCCC1(Cc2cccc([N+](=O)[O-])c2)C(=O)N(c2ccccc2)N(c2ccccc2)C1=O |  | inconclusive [activator, single point] |
